# This is one part of the list.
# B1: CFEM-SCL (Saccharomyces cerevisiae), O13547 (protein)
# chain: MRATTLLSSVVSLALLSKEVLATPPACLLACVAQVGKSSSTCDSLNQVTCYCEHENSAVKKCLDSICPNNDADAAYSAFKSSCSEQNASLGD
# Key:
# Test in all cases: glycan array binding signal (z-score within array); higher = stronger binding
# Conditions in all cases: glycan notation: IUPAC condensed, linker removed
# Gal(a1-6)Glc = target: Gal(a1-6)Glc
# Method in brief: (§1)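 The binding signal is a Z-score computed within each array and averaged over linkers. Arrays of the same protein sequence at different concentrations or buffers were also averaged together. Data originate from 3228 arrays in the Consortium for Functional Glycomics database, kept only where the protein sequence was available.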
# Gal(b1-2)Gal = target: Gal(b1-2)Gal
# Method in brief: as §1
# Gal(b1-3)Gal = target: Gal(b1-3)Gal
# Method in brief: as §1
# Gal(b1-3)Gal(b1-4)GlcNAc = target: Gal(b1-3)Gal(b1-4)GlcNAc
# Method in brief: as §1
# Gal(b1-3)GalNAc = target: Gal(b1-3)GalNAc
# Method in brief: as §1
# [1] = target: Gal(b1-3)GalNAc(a1-3)[Fuc(a1-2)]Gal(b1-4)Glc
# Method in brief: as §1
# [2] = target: Gal(b1-3)GalNAc(a1-3)[Fuc(a1-2)]Gal(b1-4)GlcNAc
# Method in brief: as §1
# Gal(b1-3)GalNAc(b1-3)Gal = target: Gal(b1-3)GalNAc(b1-3)Gal
# Method in brief: as §1
# [3] = target: Gal(b1-3)GalNAc(b1-3)Gal(a1-4)Gal(b1-4)Glc
# Method in brief: as §1
# [4] = target: Gal(b1-3)GalNAc(b1-4)Gal(b1-4)Glc
# Method in brief: as §1
# [5] = target: Gal(b1-3)GalNAc(b1-4)[Neu5Ac(a2-3)]Gal(b1-4)Glc
# Method in brief: as §1
# Gal(b1-3)GlcNAc = target: Gal(b1-3)GlcNAc
# Method in brief: as §1
# [6] = target: Gal(b1-3)GlcNAc(a1-3)Gal(b1-4)GlcNAc
# Method in brief: as §1
# [7] = target: Gal(b1-3)GlcNAc(a1-6)Gal(b1-4)GlcNAc
# Method in brief: as §1
# Gal(b1-3)GlcNAc(b1-2)Man = target: Gal(b1-3)GlcNAc(b1-2)Man
# Method in brief: as §1
# [8] = target: Gal(b1-3)GlcNAc(b1-2)Man(a1-3)[Gal(b1-3)GlcNAc(b1-2)Man(a1-6)]Man(b1-4)GlcNAc(b1-4)GlcNAc
# Method in brief: as §1
# [9] = target: Gal(b1-3)GlcNAc(b1-2)Man(a1-3)[Gal(b1-3)GlcNAc(b1-2)Man(a1-6)]Man(b1-4)GlcNAc(b1-4)[Fuc(a1-6)]GlcNAc
# Method in brief: as §1
# [10] = target: Gal(b1-3)GlcNAc(b1-2)Man(a1-3)[GlcNAc(b1-4)][Gal(b1-3)GlcNAc(b1-2)Man(a1-6)]Man(b1-4)GlcNAc(b1-4)GlcNAc
# Method in brief: as §1
# [11] = target: Gal(b1-3)GlcNAc(b1-2)[Gal(b1-3)GlcNAc(b1-6)]Man(a1-6)[Gal(b1-3)GlcNAc(b1-2)Man(a1-3)]Man(b1-4)GlcNAc(b1-4)GlcNAc
# Method in brief: as §1
# [12] = target: Gal(b1-3)GlcNAc(b1-3)Gal(b1-3)GlcNAc
# Method in brief: as §1
# [13] = target: Gal(b1-3)GlcNAc(b1-3)Gal(b1-4)Glc
# Method in brief: as §1
# [14] = target: Gal(b1-3)GlcNAc(b1-3)Gal(b1-4)GlcNAc
# Method in brief: as §1
# [15] = target: Gal(b1-3)GlcNAc(b1-3)Gal(b1-4)GlcNAc(b1-2)Man(a1-3)[Gal(b1-3)GlcNAc(b1-3)Gal(b1-4)GlcNAc(b1-2)Man(a1-6)]Man(b1-4)GlcNAc(b1-4)GlcNAc
# Method in brief: as §1
# [16] = target: Gal(b1-3)GlcNAc(b1-3)Gal(b1-4)GlcNAc(b1-2)[Gal(b1-3)GlcNAc(b1-3)Gal(b1-4)GlcNAc(b1-6)]Man(a1-6)[Gal(b1-3)GlcNAc(b1-3)Gal(b1-4)GlcNAc(b1-2)Man(a1-3)]Man(b1-4)GlcNAc(b1-4)[Fuc(a1-6)]GlcNAc
# Method in brief: as §1
# [17] = target: Gal(b1-3)GlcNAc(b1-3)Gal(b1-4)GlcNAc(b1-3)Gal(b1-4)GlcNAc(b1-2)[Gal(b1-3)GlcNAc(b1-3)Gal(b1-4)GlcNAc(b1-3)Gal(b1-4)GlcNAc(b1-6)]Man(a1-6)[Gal(b1-3)GlcNAc(b1-3)Gal(b1-4)GlcNAc(b1-3)Gal(b1-4)GlcNAc(b1-2)Man(a1-3)]Man(b1-4)GlcNAc(b1-4)[Fuc(a1-6)]GlcNAc
# Method in brief: as §1
# [18] = target: Gal(b1-3)GlcNAc(b1-3)Gal(b1-4)GlcNAc(b1-6)[Gal(b1-3)GlcNAc(b1-3)]Gal(b1-4)Glc
# Method in brief: as §1
# [19] = target: Gal(b1-3)GlcNAc(b1-3)Gal(b1-4)[Fuc(a1-3)]GlcNAc
# Method in brief: as §1
# [20] = target: Gal(b1-3)GlcNAc(b1-3)Gal(b1-4)[Fuc(a1-3)]GlcNAc(b1-6)[Gal(b1-3)GlcNAc(b1-3)]Gal(b1-4)Glc
# Method in brief: as §1
# [21] = target: Gal(b1-3)GlcNAc(b1-3)GalNAc
# Method in brief: as §1
# [22] = target: Gal(b1-3)GlcNAc(b1-6)Gal(b1-4)GlcNAc
# Method in brief: as §1
# [23] = target: Gal(b1-3)GlcNAc(b1-6)GalNAc
# Method in brief: as §1
# [24] = target: Gal(b1-3)GlcNAc(b1-6)[Gal(b1-3)]GalNAc
# Method in brief: as §1
# Gal(b1-3)GlcNAc6S = target: Gal(b1-3)GlcNAc6S
# Method in brief: as §1
# [25] = target: Gal(b1-3)[Fuc(a1-4)]GlcNAc
# Method in brief: as §1
# [26] = target: Gal(b1-3)[Fuc(a1-4)]GlcNAc(b1-2)Man
# Method in brief: as §1
# [27] = target: Gal(b1-3)[Fuc(a1-4)]GlcNAc(b1-2)Man(a1-3)[Gal(b1-3)[Fuc(a1-4)]GlcNAc(b1-2)Man(a1-6)]Man(b1-4)GlcNAc(b1-4)[Fuc(a1-6)]GlcNAc
# Method in brief: as §1
# [28] = target: Gal(b1-3)[Fuc(a1-4)]GlcNAc(b1-3)Gal(b1-3)[Fuc(a1-4)]GlcNAc
# Method in brief: as §1
# [29] = target: Gal(b1-3)[Fuc(a1-4)]GlcNAc(b1-3)Gal(b1-4)[Fuc(a1-3)]GlcNAc
# Method in brief: as §1
# [30] = target: Gal(b1-3)[Fuc(a1-4)]GlcNAc(b1-6)GalNAc
# Method in brief: as §1
# [31] = target: Gal(b1-3)[GlcNAc(b1-6)]GalNAc
# Method in brief: as §1
# [32] = target: Gal(b1-3)[Neu5Ac(a2-6)]GalNAc
# Method in brief: as §1
# [33] = target: Gal(b1-3)[Neu5Ac(a2-6)]GlcNAc(b1-4)Gal(b1-4)Glc
# Method in brief: as §1
# [34] = target: Gal(b1-3)[Neu5Ac(b2-6)]GalNAc
# Method in brief: as §1
# Gal(b1-4)Gal = target: Gal(b1-4)Gal
# Method in brief: as §1
# [35] = target: Gal(b1-4)GalNAc(a1-3)[Fuc(a1-2)]Gal(b1-4)GlcNAc
# Method in brief: as §1
binder,measurement,setting,value
B1,glycan array binding signal (z-score),Gal(a1-6)Glc,0.231
same,glycan array binding signal (z-score),Gal(b1-2)Gal,0.077
same,glycan array binding signal (z-score),Gal(b1-3)Gal,4.26
same,glycan array binding signal (z-score),Gal(b1-3)Gal(b1-4)GlcNAc,2.99
same,glycan array binding signal (z-score),Gal(b1-3)GalNAc,3.86
same,glycan array binding signal (z-score),[1],0.646
same,glycan array binding signal (z-score),[2],0.94
same,glycan array binding signal (z-score),Gal(b1-3)GalNAc(b1-3)Gal,14.5
same,glycan array binding signal (z-score),[3],0.829
same,glycan array binding signal (z-score),[4],11.1
same,glycan array binding signal (z-score),[5],2.46
same,glycan array binding signal (z-score),Gal(b1-3)GlcNAc,-0.07
same,glycan array binding signal (z-score),[6],0.016
same,glycan array binding signal (z-score),[7],-0.167
same,glycan array binding signal (z-score),Gal(b1-3)GlcNAc(b1-2)Man,0.015
same,glycan array binding signal (z-score),[8],-0.269
same,glycan array binding signal (z-score),[9],-0.181
same,glycan array binding signal (z-score),[10],-0.154
same,glycan array binding signal (z-score),[11],-0.332
same,glycan array binding signal (z-score),[12],-0.213
same,glycan array binding signal (z-score),[13],-0.258
same,glycan array binding signal (z-score),[14],-0.203
same,glycan array binding signal (z-score),[15],-0.213
same,glycan array binding signal (z-score),[16],0.013
same,glycan array binding signal (z-score),[17],0.038
same,glycan array binding signal (z-score),[18],0.032
same,glycan array binding signal (z-score),[19],-0.209
same,glycan array binding signal (z-score),[20],-0.278
same,glycan array binding signal (z-score),[21],-0.298
same,glycan array binding signal (z-score),[22],-0.02
same,glycan array binding signal (z-score),[23],-0.086
same,glycan array binding signal (z-score),[24],0.548
same,glycan array binding signal (z-score),Gal(b1-3)GlcNAc6S,-0.152
same,glycan array binding signal (z-score),[25],-0.214
same,glycan array binding signal (z-score),[26],-0.032
same,glycan array binding signal (z-score),[27],-0.123
same,glycan array binding signal (z-score),[28],-0.149
same,glycan array binding signal (z-score),[29],-0.245
same,glycan array binding signal (z-score),[30],0.272
same,glycan array binding signal (z-score),[31],1.02
same,glycan array binding signal (z-score),[32],3.63
same,glycan array binding signal (z-score),[33],-0.314
same,glycan array binding signal (z-score),[34],0.099
same,glycan array binding signal (z-score),Gal(b1-4)Gal,-0.271
same,glycan array binding signal (z-score),[35],-0.098

# From the supplement of paper PMC8728848
